Test results from publication PMC2808332.
No constants are given. Whether binding was seen depends on the method and setting. Some results given as binding are weak or reduced against the parent protein; the word gives no strength.

Chains of the proteins cited; added tags and fusions are not shown. Lines headed by an entry give the natural chain unless they say otherwise; changes in a name come on top. A line that says so, or that is headed by a name, gives the form on record, which may keep a tag or linker. Residues count along the entry.
ADP-ribosylation-like factor 6 interacting protein 4 (NM_016638) (Q66PJ3, form named): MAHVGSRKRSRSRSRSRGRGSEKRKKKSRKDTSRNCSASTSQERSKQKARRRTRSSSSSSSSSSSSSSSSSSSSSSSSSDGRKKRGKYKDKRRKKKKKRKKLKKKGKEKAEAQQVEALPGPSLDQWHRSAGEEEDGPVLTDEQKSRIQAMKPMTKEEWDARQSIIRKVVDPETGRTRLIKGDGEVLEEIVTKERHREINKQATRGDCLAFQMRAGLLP
UniProt Q9UIV1: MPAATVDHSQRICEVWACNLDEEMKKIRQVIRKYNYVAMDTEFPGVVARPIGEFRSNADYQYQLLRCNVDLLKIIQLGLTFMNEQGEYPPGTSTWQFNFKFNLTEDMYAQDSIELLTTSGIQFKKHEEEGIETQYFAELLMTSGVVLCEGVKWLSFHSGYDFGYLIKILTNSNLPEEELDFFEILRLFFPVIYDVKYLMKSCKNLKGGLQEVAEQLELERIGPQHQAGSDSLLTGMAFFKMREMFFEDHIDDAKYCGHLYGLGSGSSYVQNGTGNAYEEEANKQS
UniProt Q9BYM8: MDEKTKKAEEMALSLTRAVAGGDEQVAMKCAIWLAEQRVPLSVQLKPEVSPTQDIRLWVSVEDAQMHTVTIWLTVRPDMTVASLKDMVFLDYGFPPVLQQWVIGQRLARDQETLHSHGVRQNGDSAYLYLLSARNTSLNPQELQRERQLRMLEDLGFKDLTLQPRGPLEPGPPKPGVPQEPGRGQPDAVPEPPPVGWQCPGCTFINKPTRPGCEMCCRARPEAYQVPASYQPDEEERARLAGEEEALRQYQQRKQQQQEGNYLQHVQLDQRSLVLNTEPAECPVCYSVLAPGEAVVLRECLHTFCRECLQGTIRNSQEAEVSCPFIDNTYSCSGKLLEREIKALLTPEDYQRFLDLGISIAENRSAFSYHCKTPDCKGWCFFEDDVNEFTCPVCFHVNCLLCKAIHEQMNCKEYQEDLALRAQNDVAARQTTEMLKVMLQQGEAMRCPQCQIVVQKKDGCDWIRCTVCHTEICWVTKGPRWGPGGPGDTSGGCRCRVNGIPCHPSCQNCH
UniProt O14893, residues 12-280: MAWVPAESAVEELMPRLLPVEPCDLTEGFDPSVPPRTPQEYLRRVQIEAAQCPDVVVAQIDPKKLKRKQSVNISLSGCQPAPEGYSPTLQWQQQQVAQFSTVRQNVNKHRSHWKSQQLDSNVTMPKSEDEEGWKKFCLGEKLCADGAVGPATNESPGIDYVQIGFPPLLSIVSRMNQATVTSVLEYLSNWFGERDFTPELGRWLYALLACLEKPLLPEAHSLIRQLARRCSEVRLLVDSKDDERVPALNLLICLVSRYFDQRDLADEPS

Legend:
Assay in all cases: peptide or protein array; Invitrogen Protoarray v4.0, about 8,400 human proteins spotted on nitrocellulose-coated glass slides; 10 µg biotinylated tag-free NEMO in 120 µl probing buffer (PBS, 0.5 mM DTT, 5 mM MgCl2, 5% glycerol, 0.05% Triton X-100), 4°C, 1.5 h; bound NEMO detected with labelled streptavidin; hits Z-score > 3, hits of the biotin-GST control array subtracted; both purified
[1] = target: ADP-ribosylation-like factor 6 interacting protein 4 (NM_016638) (human) (UniProt Q66PJ3)
[2] = target: CCR4-NOT transcription complex, subunit 7 (human) (UniProt Q9UIV1)
[3] = target: Nuclear receptor binding factor 2 (human) (UniProt Q96F24)
Phosducin-like (human) = target: T1, Phosducin-like (human) (UniProt Q13371)
T1 sequence: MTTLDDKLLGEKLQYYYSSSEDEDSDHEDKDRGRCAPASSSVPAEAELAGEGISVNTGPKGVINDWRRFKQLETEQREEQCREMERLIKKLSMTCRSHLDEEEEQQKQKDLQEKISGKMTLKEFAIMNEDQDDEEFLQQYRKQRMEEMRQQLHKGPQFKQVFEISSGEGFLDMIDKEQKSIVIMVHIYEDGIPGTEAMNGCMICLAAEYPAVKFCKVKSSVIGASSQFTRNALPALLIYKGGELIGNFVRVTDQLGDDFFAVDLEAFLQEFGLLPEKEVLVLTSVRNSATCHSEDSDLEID

[4] = target: RanBP-type and C3HC4-type zinc finger containing 1 (human) (UniProt Q9BYM8)
[5] = target: Survival of motor neuron protein interacting protein 1, transcript variant alpha (human) (UniProt O14893)

Measured: binding

NEMO (NF-κB essential modulator), tag-free, biotinylated (from UniProt Q9Y6K9 1-419)
binds: all assays above
